Reference: article PMC4336329 (PLoS ONE, 2015)
Out of some 310,000 compounds screened, about 14,000 (4.5%) showed an effect of 50% or more. The effect is printed as a negative number. The list shows a part of the results.

Target: human ether-à-go-go-related gene (hERG) potassium channel (human, UniProt Q12809)
Assay: primary screen, population patch clamp on CHO cells stably expressing hERG
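Note: peak tail current of the secondary pulse compared with the same well before compound.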

human ether-à-go-go-related gene (hERG) potassium channel, sequence (Q12809 whole entry, looked up): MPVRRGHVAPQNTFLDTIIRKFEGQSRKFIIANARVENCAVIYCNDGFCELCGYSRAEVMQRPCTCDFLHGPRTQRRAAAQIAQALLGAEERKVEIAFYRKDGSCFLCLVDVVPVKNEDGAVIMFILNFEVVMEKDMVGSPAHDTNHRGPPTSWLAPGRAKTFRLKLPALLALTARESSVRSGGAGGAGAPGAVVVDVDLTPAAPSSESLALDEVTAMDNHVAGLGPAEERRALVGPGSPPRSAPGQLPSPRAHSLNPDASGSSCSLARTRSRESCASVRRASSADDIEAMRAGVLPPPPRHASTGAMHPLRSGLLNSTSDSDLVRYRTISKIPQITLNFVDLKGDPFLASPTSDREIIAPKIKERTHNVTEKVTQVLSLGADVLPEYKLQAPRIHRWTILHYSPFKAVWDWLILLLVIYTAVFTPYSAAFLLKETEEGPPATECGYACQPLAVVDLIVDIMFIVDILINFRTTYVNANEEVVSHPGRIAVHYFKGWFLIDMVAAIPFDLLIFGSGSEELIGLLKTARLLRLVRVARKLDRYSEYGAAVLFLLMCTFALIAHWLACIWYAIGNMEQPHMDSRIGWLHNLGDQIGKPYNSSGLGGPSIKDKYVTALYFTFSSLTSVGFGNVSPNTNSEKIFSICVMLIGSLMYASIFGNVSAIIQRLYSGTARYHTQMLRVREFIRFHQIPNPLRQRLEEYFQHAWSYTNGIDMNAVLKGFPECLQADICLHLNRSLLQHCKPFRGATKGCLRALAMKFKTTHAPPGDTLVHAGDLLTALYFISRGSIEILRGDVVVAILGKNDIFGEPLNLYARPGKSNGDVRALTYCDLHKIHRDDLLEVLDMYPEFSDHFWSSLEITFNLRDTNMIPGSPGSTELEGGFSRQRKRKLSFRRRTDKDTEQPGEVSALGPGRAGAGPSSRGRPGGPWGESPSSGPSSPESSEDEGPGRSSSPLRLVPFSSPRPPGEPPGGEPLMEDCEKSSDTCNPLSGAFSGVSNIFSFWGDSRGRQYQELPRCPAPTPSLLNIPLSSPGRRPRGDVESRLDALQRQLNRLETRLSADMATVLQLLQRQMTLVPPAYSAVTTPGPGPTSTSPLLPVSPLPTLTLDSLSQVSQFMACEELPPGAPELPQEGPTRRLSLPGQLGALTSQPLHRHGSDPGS

SMILES	hERG current change (%, negative = inhibition) at 10uM [%]
CN(C)c1ccc(N/C=C/C(=O)c2ccco2)cc1	4.67
CC1CCCCN1S(=O)(=O)c1ccc(N(C(=O)c2cnccn2)C(C(=O)NC2CCCCC2)c2cccs2)cc1 (centres unmarked)	-26.3
Cc1nc(N2CCC(C(N)=O)CC2)c2nnn(Cc3ccccc3)c2n1	16.3
COc1ccc(/C=C(/CC(=O)NCc2ccc(Cl)cc2)c2nc3ccccc3s2)cc1	9.4
CC1(C(=O)O)CCC(C(N)=O)C1(C)C (centres unmarked)	1.19
COc1ccc(CNC(=O)C(OC(C)=O)c2ccccn2)cc1 (centres unmarked)	6.09
COc1ccccc1-n1cnc2cc(C(=O)NCC3CCCO3)ccc21 (centres unmarked)	-13.7
O=C(CCCSc1nc2ccccc2[nH]1)NCc1ccccc1Cl	-19.3
S=c1[nH]nc(COc2ccc(Cl)cc2)n1-c1ccccc1	15.5
CC1CCCC(C)N1CCCNC(=O)CCn1c(=O)c2cccn2c2cccnc21 (centres unmarked)	16.7
CN1CCN(c2ccc(NC(=O)c3ccc(Oc4ccccc4)cc3)cc2)CC1	11.1
CCC(CC)C(=O)NCCCCc1ccccc1	1.79
CCOC(=O)c1ccc(NC(=S)N2CCN(Cc3ccccc3)CC2)cc1	3.95
CC(=O)CSc1nc(N)c(C#N)c(-c2cccs2)c1C#N	13.1
CN(C)CCNC(=O)C(=O)C1C(=O)Nc2ccccc21 (centres unmarked)	8.38
CCO.Cc1cc(C)n(CCc2nc(-c3ccc(-c4ccccc4)cc3)cs2)n1	10.1
O=C(c1nn2c(C(F)(F)F)cc(-c3cccs3)nc2c1Br)N1CCCc2ccccc21	14.3
CCCOc1ccc(-c2c(=O)n(O)c3ccccc3[n+]2[O-])cc1	18.3
CCN1C(=O)N[C@@H](c2ccccc2)[C@H](C(C)=O)[C@H]1C	12.9
CC(C)N(Cc1cnn(C)c1)C(=O)C1CCC(=O)N(CCc2cccc(F)c2)C1 (centres unmarked)	2.63
COc1ccc(C(=O)CSc2nnc(NC(=O)C3CC(=O)N(c4ccccc4C)C3)s2)cc1 (centres unmarked)	9.04
COc1ccc(-c2c(NC(=O)c3ccco3)oc3ccccc3c2=O)cc1	15.2
CN(C)CCn1nnc2c(=O)oc3ccccc3c21.Cl	-8.48

SMILES	hERG current change (%, negative = inhibition) at 10uM [%]
CCc1c(C(C)S(=O)(=O)c2ccc(C)cc2)[nH]c(=O)n1-c1ccc(C)cc1 (centres unmarked)	13.5
O=C1c2ccccc2C(=O)N1CN(C(=O)COc1ccc(Cl)cc1Cl)c1cccc(F)c1	1.4
COc1cc(CCC(=O)NCC2CCCO2)cc(OC)c1OC (centres unmarked)	19.5
COc1ccc(CN2CCNC(=O)C2CC(=O)N(C)Cc2ccno2)c(F)c1 (centres unmarked)	3.58
CCCC1(c2ccccc2)NC(=O)N(CC(=O)Nc2cc(C)on2)C1=O (centres unmarked)	23.6
CN1CCc2c(sc3c2c(=O)n(-c2ccccc2)c2n[nH]c(=S)n32)C1	-2.7
OCCC#Cc1ccc(CN2CCN(Cc3ccsc3)C(CCO)C2)cc1 (centres unmarked)	-4.59
CCOC(=O)N1CCN(c2ccc(C(C)=O)cc2F)CC1C (centres unmarked)	-35.3
CCCc1ccc(S(=O)(=O)N/N=C\c2ccc3c(c2)OCO3)cc1	-0.771
O=C(CCN1C(=O)C2CCCCC2C1=O)Nc1nc2ccc(F)cc2s1 (centres unmarked)	-6.97
CC(C)(C)c1cc(NC(=O)Nc2ccccc2OC(F)(F)F)no1	26.4
CCOc1ccc(/C=N/NC2=NCCCCC2)cc1	-69.3
COc1cc(OC)cc(C(=O)NC(C)CNc2ccc(Cl)cc2[N+](=O)[O-])c1 (centres unmarked)	-11.7
O=c1[nH]c2cc3c(cc2cc1CN(Cc1nnnn1CC1CCCO1)C1CCCCC1)OCO3 (centres unmarked)	6.43
N#Cc1cccc(Cn2cc(C(F)(F)F)ccc2=O)c1	-1.31
COc1ccc(C(=O)NC2CC2)cc1OC1CCN(Cc2ccc(F)c(F)c2)CC1	-75.2
CCOc1ccc([C@@H]2CC=C(C(=O)O)CN2S(=O)(=O)c2ccc(C)cc2)cc1	6.99
CCn1nc(C(=O)OCC(=O)N2CCc3ccccc32)c2ccccc2c1=O	-7.86
FC(F)(F)c1cnc(-c2cnc(-c3ccccn3)nc2)c(Cl)c1	11.6
CC(C)(C)C1CCc2c(sc(NC(=O)c3ccco3)c2C(N)=O)C1 (centres unmarked)	19.8
Cc1ccc(C(c2nnnn2C2CCCC2)N2CCc3ccccc32)cc1 (centres unmarked)	9.69
Cc1cc(NC(=O)c2ccc(Cl)cc2Cl)n(CCC#N)n1	16.5
CCOC(=O)c1nnn(-c2nonc2-n2cccc2)c1CN1CCC(C(=O)OCC)CC1	-10.3

SMILES	hERG current change (%, negative = inhibition) at 10uM [%]
CCc1cccc(C)c1NC(=O)CCCN1C(=O)CN(C)C1=O	-1.59
CC(=O)Nc1ccc2nc(C3CCCCC3)[nH]c2c1	9.34
COc1ccc(CCNC(=O)c2ccco2)cc1	9.1
Cc1ccccc1OCc1nnc(SCC(=O)Nc2ccc(N3CCOCC3)c(Cl)c2)n1C	3.63
CCOc1ccc(N2C(=O)CC(N3CCOCC3)C2=O)cc1 (centres unmarked)	4.73
CCCCNC(=O)c1ccc(Cn2c(=S)[nH]c3c([nH]c4ccc(OC)cc43)c2=O)cc1	-3.63
CCC(C)N(C(=O)Cn1nc(C)c([N+](=O)[O-])c1C)C1CCS(=O)(=O)C1 (centres unmarked)	-2.13
CCCn1cc(S(=O)(=O)c2ccc(F)cc2)c(=O)c2cc(OCC)ccc21	-38.6
Cc1c(Cl)cccc1NC(=O)CCN1CCCCC1	-9.25
CCOc1cc(NC(=O)c2cccs2)c(OCC)cc1NC(=O)c1ccco1	20.4
Cc1nnc(NC2=NCCCCC2)o1	7.75
CN(C)S(=O)(=O)c1cccc(NC(=O)/C=C/c2ccc(S(=O)(=O)N3CCOCC3)cc2)c1	6.02
O/N=C(\c1ccc2c(c1)OCCO2)C1CCCCC1	10.3
COc1cc(C(=O)NNC(=O)COc2ccc(C)cc2)ccc1OCC(=O)N1CCOCC1	2.68
COc1ccc2nc(N3CCCCC3)c(/C=C3\SC(=S)NC3=O)cc2c1	21.7
COc1cccc(OC)c1C(=O)NC(=S)NCc1ccco1	18.2
CCc1ccc(C(=O)CSc2nc3ccccc3c(=O)[nH]2)cc1	-5.04
Cn1cccc1Cc1nnc(SCC(N)=O)n1CCc1ccccc1	-6.33
CN(Cc1c(F)cccc1Cl)C(=O)c1cnc2ccccc2n1	-0.845
CCc1ccc(NC2Nc3cc(C)nn3S2)cc1 (centres unmarked)	8.3
COC(=O)Cc1c(C)nc2nc(NCc3cccc([N+](=O)[O-])c3)[nH]n2c1=O	2.49
Cc1c(C(=O)N2CCC(C)CC2)oc2ccc3c(c12)C(O)CC1(CCCCC1)O3 (centres unmarked)	17
Cc1c(N=Cc2cccnc2)c(=O)n(-c2ccccc2)n1C	2.93

SMILES	hERG current change (%, negative = inhibition) at 10uM [%]
N=C1C(c2ccccc2)=C(O)CN1c1cccc(S(=O)(=O)N2CCCCC2)c1	7.36
Cc1cccc(C(=O)Nc2cccc(NC(=O)c3ccccc3)c2)c1	-17.4
Oc1ccccc1-c1cc(C(F)(F)F)nc(-c2ccccc2)n1	14.8
COc1ccc(N(CC(=O)Nc2cc(C)ccc2C)S(=O)(=O)c2ccccc2[N+](=O)[O-])c(OC)c1	7.58
O=C(CCS(=O)(=O)c1ccccc1)Nc1ccccc1F	17.5
COc1cccc(C(=O)N2CCN(c3ncccn3)CC2)c1	-30.8
O=C(OCCCN1C(=O)c2ccccc2C1=O)c1ccco1	-5.16
C[C@@H](NC(=O)c1[nH]cnc1C(=O)Nc1ccon1)c1ccccc1	-1.13
O=C(CN1CCN(S(=O)(=O)c2ccc3ccccc3c2)CC1)Nc1ccc(N2CCOCC2)cc1	4.94
C=CCc1cccc(Cl)c1OCCON1C(=O)CCC1=O	-2.1
Cc1nn(Cc2ccccc2Cl)c(C)c1NC(=O)c1nc2ncccn2n1	16.9
COc1ccc(NC(=O)OCCn2c([N+](=O)[O-])cnc2C)cc1	3.85
CCOC(=O)CCn1cc(F)c(=O)[nH]c1=O	22
COc1ccccc1N1CCN(S(=O)(=O)c2cnc[nH]2)CC1	-0.799
C=Cn1cc[n+](CC(=O)c2ccc(OC)c(OC)c2)c1.[Br-]	4.74
COc1ccc(N2C(=O)C3C(C2=O)C2C=CC3C23CC3)c(OC)c1 (centres unmarked)	16.4
CC(C(c1ccc2c(c1)OCO2)c1c(N)n(C)c(=O)n(C)c1=O)[N+](=O)[O-] (centres unmarked)	4.36
CSc1ccc(S(=O)(=O)NCCOc2ccccc2C)cc1	-2.68
O=C(CSc1ccc(-c2cccc([N+](=O)[O-])c2)nn1)N1CCCC1	-24.7
CCCCc1ncc(CN2CCN(Cc3ccc(C)cc3)C(CCO)C2)[nH]1 (centres unmarked)	-57.9
